Reference: paper PMC9911399, “Two distinct binding modes provide the RNA-binding protein RbFox with extraordinary sequence specificity”
Changes are numbered by the printed parent chain; changes in the protein carry UniProt numbers. The list shows a part of the results.

T1: RBFOX1 RRM (Homo sapiens, UniProt Q9NWB1 109-208)
T1 sequence: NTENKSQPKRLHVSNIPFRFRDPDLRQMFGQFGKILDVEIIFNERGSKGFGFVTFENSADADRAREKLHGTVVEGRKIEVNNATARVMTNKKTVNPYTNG

B1: GGGUUAG (DNA:RNA)
RNA: GGGAGACCGGAAUUCAGAUUGUCCGGGUUAGUUAAAUCCCGUCGUAGCCACCA
DNA 1: CAATCTGAATTCCGGTCTCCC
DNA 2: TGGTGGCTACGACGGGATT
B2: UCGCGAU (DNA:RNA)
RNA: B1 RNA with G25U, G26C, U28C, U29G, G31U
DNA 1: CAATCTGAATTCCGGTCTCCC
DNA 2: TGGTGGCTACGACGGGATT
B3: CGCGCGC (DNA:RNA)
RNA: B1 RNA with G25C, G27C, U28G, U29C, A30G, G31C
DNA 1: CAATCTGAATTCCGGTCTCCC
DNA 2: TGGTGGCTACGACGGGATT
B4: UUUCCAU (DNA:RNA)
RNA: B1 RNA with G25U, G26U, G27U, U28C, U29C, G31U
DNA 1: CAATCTGAATTCCGGTCTCCC
DNA 2: TGGTGGCTACGACGGGATT
B5: GAUUAUC (DNA:RNA)
RNA: B1 RNA with G26A, G27U, U29A, A30U, G31C
DNA 1: CAATCTGAATTCCGGTCTCCC
DNA 2: TGGTGGCTACGACGGGATT
B6: CUCUAGC (DNA:RNA)
RNA: B1 RNA with G25C, G26U, G27C, U29A, A30G, G31C
DNA 1: CAATCTGAATTCCGGTCTCCC
DNA 2: TGGTGGCTACGACGGGATT
B7: UCUUCGG (DNA:RNA)
RNA: B1 RNA with G25U, G26C, G27U, U29C, A30G
DNA 1: CAATCTGAATTCCGGTCTCCC
DNA 2: TGGTGGCTACGACGGGATT
B8: UGGCGUG (DNA:RNA)
RNA: B1 RNA with G25U, U28C, U29G, A30U
DNA 1: CAATCTGAATTCCGGTCTCCC
DNA 2: TGGTGGCTACGACGGGATT
B9: UAGGACC (DNA:RNA)
RNA: B1 RNA with G25U, G26A, U28G, U29A, A30C, G31C
DNA 1: CAATCTGAATTCCGGTCTCCC
DNA 2: TGGTGGCTACGACGGGATT
B10: AUUCUGA (DNA:RNA)
RNA: B1 RNA with G25A, G26U, G27U, U28C, A30G, G31A
DNA 1: CAATCTGAATTCCGGTCTCCC
DNA 2: TGGTGGCTACGACGGGATT
B11: UGAGACA (DNA:RNA)
RNA: B1 RNA with G25U, G27A, U28G, U29A, A30C, G31A
DNA 1: CAATCTGAATTCCGGTCTCCC
DNA 2: TGGTGGCTACGACGGGATT
B12: UUUAUCU (DNA:RNA)
RNA: B1 RNA with G25U, G26U, G27U, U28A, A30C, G31U
DNA 1: CAATCTGAATTCCGGTCTCCC
DNA 2: TGGTGGCTACGACGGGATT
B13: AAGGUCU (DNA:RNA)
RNA: B1 RNA with G25A, G26A, U28G, A30C, G31U
DNA 1: CAATCTGAATTCCGGTCTCCC
DNA 2: TGGTGGCTACGACGGGATT
B14: CGCCAUC (DNA:RNA)
RNA: B1 RNA with G25C, G27C, U28C, U29A, A30U, G31C
DNA 1: CAATCTGAATTCCGGTCTCCC
DNA 2: TGGTGGCTACGACGGGATT
B15: AGUCGAA (DNA:RNA)
RNA: B1 RNA with G25A, G27U, U28C, U29G, G31A
DNA 1: CAATCTGAATTCCGGTCTCCC
DNA 2: TGGTGGCTACGACGGGATT
B16: UAGCCGA (DNA:RNA)
RNA: B1 RNA with G25U, G26A, U28C, U29C, A30G, G31A
DNA 1: CAATCTGAATTCCGGTCTCCC
DNA 2: TGGTGGCTACGACGGGATT
B17: ACUCAGC (DNA:RNA)
RNA: GGGAGACCGGAAUUCAGAUUGUCCACUCAGCUUAAAUCCCGUCGUAGCCACCA
DNA 1: CAATCTGAATTCCGGTCTCCC
DNA 2: TGGTGGCTACGACGGGATT
B18: CCUUGAG (DNA:RNA)
RNA: B1 RNA with G25C, G26C, G27U, U29G
DNA 1: CAATCTGAATTCCGGTCTCCC
DNA 2: TGGTGGCTACGACGGGATT
B19: GGGGCAG (DNA:RNA)
RNA: B1 RNA with U28G, U29C
DNA 1: CAATCTGAATTCCGGTCTCCC
DNA 2: TGGTGGCTACGACGGGATT
B20: GGUAAAU (DNA:RNA)
RNA: B1 RNA with G27U, U28A, U29A, G31U
DNA 1: CAATCTGAATTCCGGTCTCCC
DNA 2: TGGTGGCTACGACGGGATT
B21: CGCGUGA (DNA:RNA)
RNA: B1 RNA with G25C, G27C, U28G, A30G, G31A
DNA 1: CAATCTGAATTCCGGTCTCCC
DNA 2: TGGTGGCTACGACGGGATT
B22: UAGACAG (DNA:RNA)
RNA: B1 RNA with G25U, G26A, U28A, U29C
DNA 1: CAATCTGAATTCCGGTCTCCC
DNA 2: TGGTGGCTACGACGGGATT
B23: CGCGAGG (DNA:RNA)
RNA: B17 RNA with A25C, C26G, U27C, C28G, C31G
DNA 1: CAATCTGAATTCCGGTCTCCC
DNA 2: TGGTGGCTACGACGGGATT
B24: GCUCAAC (DNA:RNA)
RNA: B17 RNA with A25G, G30A
DNA 1: CAATCTGAATTCCGGTCTCCC
DNA 2: TGGTGGCTACGACGGGATT
B25: GCGGCAC (DNA:RNA)
RNA: B1 RNA with G26C, U28G, U29C, G31C
DNA 1: CAATCTGAATTCCGGTCTCCC
DNA 2: TGGTGGCTACGACGGGATT
B26: GAUUGAC (DNA:RNA)
RNA: B1 RNA with G26A, G27U, U29G, G31C
DNA 1: CAATCTGAATTCCGGTCTCCC
DNA 2: TGGTGGCTACGACGGGATT
B27: GUCGCCU (DNA:RNA)
RNA: B1 RNA with G26U, G27C, U28G, U29C, A30C, G31U
DNA 1: CAATCTGAATTCCGGTCTCCC
DNA 2: TGGTGGCTACGACGGGATT
B28: CUCUUAC (DNA:RNA)
RNA: B1 RNA with G25C, G26U, G27C, G31C
DNA 1: CAATCTGAATTCCGGTCTCCC
DNA 2: TGGTGGCTACGACGGGATT
B29: UGUCUGC (DNA:RNA)
RNA: B17 RNA with A25U, C26G, A29U
DNA 1: CAATCTGAATTCCGGTCTCCC
DNA 2: TGGTGGCTACGACGGGATT
B30: AAUUUUU (DNA:RNA)
RNA: B17 RNA with C26A, C28U, A29U, G30U, C31U
DNA 1: CAATCTGAATTCCGGTCTCCC
DNA 2: TGGTGGCTACGACGGGATT
B31: AGCAUUG (DNA:RNA)
RNA: B1 RNA with G25A, G27C, U28A, A30U
DNA 1: CAATCTGAATTCCGGTCTCCC
DNA 2: TGGTGGCTACGACGGGATT

These binders were tested against T1, RBFOX1 RRM (assay: EMSA; HiTS-Eq, 1 nM pool, 10 min; buffer printed only for the single-RNA assays: 10 mM Tris pH 7.5, 150 mM NaCl, 3.4 mM EDTA, 0.001% NP-40, 30 C). Settings: tags: His6 N-terminal (pET28a); label: 5' 32P.
Procedure, shortened: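 A pool of RNA with 7 randomized nucleotides, 5′-radiolabelled and with DNA-annealed flanks, was equilibrated at 1 nM for 10 min in 50 µL with purified RbFox RRM, wild type or mutant, across increasing protein concentrations. Free RNA was separated by 8% native PAGE, excised, reverse-transcribed, barcoded by PCR and sequenced. Relative association constants were obtained from read-count changes of each RNA species versus the control reaction and normalised to the cognate motif.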

Which binding signal does the source give for B1 here?
Its binding signal is 0.0153 KA relative to UGCAUGU.

With B2 as the binder, how does the binding signal read?
Its binding signal is 0.00751 KA relative to UGCAUGU.

With B3 as the binder, how does the binding signal read?
The binding signal was 0.0126 KA relative to UGCAUGU.

For B4, which binding signal is on record?
Its binding signal is 0.00307 KA relative to UGCAUGU.

How did the binding signal turn out when B5 was run?
Its binding signal is 0.00889 KA relative to UGCAUGU.

For B6, which binding signal is on record?
The binding signal was 0.00326 KA relative to UGCAUGU.

For B7, which binding signal is on record?
The binding signal was 0.013 KA relative to UGCAUGU.

For B8, which binding signal is on record?
Its binding signal is 0.0332 KA relative to UGCAUGU.

Which binding signal does the source give for B9 here?
Its binding signal is 0.00329 KA relative to UGCAUGU.

For B10, which binding signal is on record?
The binding signal was 0.0136 KA relative to UGCAUGU.

For B11, which binding signal is on record?
Its binding signal is 0.00824 KA relative to UGCAUGU.

Which binding signal does the source give for B12 here?
The binding signal was 0.00873 KA relative to UGCAUGU.

With B13 as the binder, how does the binding signal read?
Its binding signal is 0.0111 KA relative to UGCAUGU.

How did the binding signal turn out when B14 was run?
Its binding signal is 0.00464 KA relative to UGCAUGU.

B15 was tested. Which binding signal did it give?
The binding signal was 0.0116 KA relative to UGCAUGU.

With B16 as the binder, how does the binding signal read?
Its binding signal is 0.0102 KA relative to UGCAUGU.

Which binding signal does the source give for B17 here?
The binding signal was 0.00534 KA relative to UGCAUGU.

B18 was tested. Which binding signal did it give?
Its binding signal is 0.0151 KA relative to UGCAUGU.

How did the binding signal turn out when B19 was run?
Its binding signal is 0.0491 KA relative to UGCAUGU.

How did the binding signal turn out when B20 was run?
The binding signal was 0.0054 KA relative to UGCAUGU.

Which binding signal does the source give for B21 here?
The binding signal was 0.02 KA relative to UGCAUGU.

For B22, which binding signal is on record?
The binding signal was 0.00818 KA relative to UGCAUGU.

With B23 as the binder, how does the binding signal read?
The binding signal was 0.00998 KA relative to UGCAUGU.

How did the binding signal turn out when B24 was run?
Its binding signal is 0.00455 KA relative to UGCAUGU.

B25 was tested. Which binding signal did it give?
The binding signal was 0.0212 KA relative to UGCAUGU.

Which binding signal does the source give for B26 here?
Its binding signal is 0.0228 KA relative to UGCAUGU.

How did the binding signal turn out when B27 was run?
The binding signal was 0.0142 KA relative to UGCAUGU.

With B28 as the binder, how does the binding signal read?
The binding signal was 0.00497 KA relative to UGCAUGU.

How did the binding signal turn out when B29 was run?
Its binding signal is 0.0316 KA relative to UGCAUGU.

How did the binding signal turn out when B30 was run?
Its binding signal is 0.0102 KA relative to UGCAUGU.

With B31 as the binder, how does the binding signal read?
The binding signal was 0.0104 KA relative to UGCAUGU.
